# Out of some 48,000 compounds screened, about 450 (0.94%) were called active. Inconclusive results (about 19%) are left out. Calls follow the shape of the dose curve; as a rule, active = well fitted inhibition curve with a large enough effect; inconclusive = small, poorly fitted or top-dose-only effect; inactive = no such curve, though single readings can be large or run the other way. The list shows a part of the results.
# Assay: Primary qHTS for Identification of Small Molecule Inhibitors of Huntingtin Promoter Activity; also: nearly all actives have a fitted effect of over 50% in size
# Details: HEK293 HTT promoter firefly luciferase reporter (activity 0% = vehicle and -100% = no light), 24 h; series mostly up to 57.5 µM; activity change, negative = inhibition: at the top concentration
# Method in brief: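 Luminescence was read after Dual-Glo reagent and a 10 min room-temperature incubation. Values were normalized to vehicle (0% activity) and zero RLU (-100% activity). Reporter HEK293 cells had been exposed to compounds (up to 57.5 uM final) for 24 h.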
# Potency is read from the fitted curve at half-maximal effect.
Structure (SMILES),"activity change, negative = inhibition",Potency
O=C(Nc1ccc2nc(SCC(=O)N3CCc4ccccc43)sc2c1)c1cccc(Cl)c1,inactive: -17.8%,–
COc1cc(OC)c(OC)cc1CNc1sc2c(c1C(=O)Nc1ccccc1OC)CCC2,inactive: -16.9%,–
CN(C(=O)CCS(=O)(=O)c1cc2c(cc1Cl)NC(=O)CO2)C1CCCCC1,inactive: -7.05%,–
Cc1nncn1-c1ccc(C(=O)Nc2cc(F)ccc2F)cc1,inactive: 4.69%,–
Cc1ccc(CCNC(=O)CCS(=O)(=O)c2cc3c(cc2C)NC(=O)CO3)cc1,inactive: -15.4%,–
COc1ccc(C)cc1NS(=O)(=O)c1cc2c3c(c1)CC(=O)N3CCC2,inactive: -12%,–
CCn1c(=N)c(C(=O)NC2CCCCC2)cc2c(=O)n3cc(C)ccc3nc21,inactive: 6.16%,–
COc1ccc(-n2c(=O)c3ccccc3n(CC(=O)NCCc3ccc(OC)c(OC)c3)c2=O)cc1,inactive: -13.9%,–
COc1ccc(NC(=O)c2cc3c(=O)n(Cc4cccnc4)ccc3nc2C)cc1OC,inactive: -6.98%,–
COc1ccc(-n2ncc(C(=O)Nc3cccc(C(F)(F)F)c3)c2C2CCN(C(=O)OC(C)(C)C)CC2)cc1,inactive: -17.6%,–
CCOCCCN(Cc1ccco1)S(=O)(=O)c1cc2c(cc1C)NC(=O)CO2,inactive: -3.29%,–
Cc1ccc(C2=Nc3ccccc3N(CC(=O)NCc3ccccc3Cl)C(=O)C2)cc1C,inactive: 50.8%,–
COc1ccc(N2Cc3cccc(C(=O)Nc4ccc(F)cc4)c3C2=O)cc1,inactive: -17.8%,–
CCN1CCCC1CN (configuration not stated),inactive: -9.71%,–
O=C(Nc1c(C(=O)N2CCN(c3ccccc3)CC2)oc2ccccc12)c1ccco1,inactive: -32.3%,–
O=C(C=CC=Cc1ccc2c(c1)OCO2)N1CCCCC1,inactive: 22.5%,–
Cc1c(C(=O)NCCc2ccc(Cl)cc2)sc2nc3n(c(=O)c12)CCCC3,inactive: -2.99%,–
CC(C)C(=O)NCC(c1ccc2c(c1)OCO2)N1CCN(c2ccccc2)CC1 (configuration not stated),inactive: -19.4%,–
Cc1ccccc1CN1c2ccccc2-c2nc(SCC(=O)NCc3ccccc3)ncc2S1(=O)=O,inactive: -31.5%,–
COc1ccc(CCNC(=O)C(=O)NCC(c2ccc3c(c2)OCO3)N2CCOCC2)cc1OC (configuration not stated),inactive: -4.74%,–
Cc1cccc(-c2noc(CSc3nc(-c4ccc(F)cc4)cc(=O)[nH]3)n2)c1,inactive: 24.5%,–
Cc1cccn2c(=O)c(C(=O)NCCc3ccccc3)c(O)nc12,inactive: 50.3%,–
CCOc1ccc(NC(=O)c2oc3ccccc3c2NC(=O)c2c(F)cccc2F)cc1,inactive: -15.4%,–
CCOc1ccc(NC(=O)C2CCCN(S(=O)(=O)c3ccc4[nH]c(=O)ccc4c3)C2)cc1 (configuration not stated),inactive: -17.1%,–
Cc1ccc(NC(=O)C(=O)c2cc(C)n(-c3ccc(F)cc3)c2C)cc1C,inactive: -23.8%,–

Structure (SMILES),"activity change, negative = inhibition",Potency
COc1cccc(-n2ccn(CC(=O)c3ccc(F)cc3)c(=O)c2=O)c1,inactive: -18.1%,–
COc1ccccc1N1CCN(C(=O)CSc2nc3ccccc3nc2Cc2ccccc2)CC1,inactive: -6.3%,–
O=C(O)C=Cc1ccc(Cn2ccnc2)cc1,inactive: 15.6%,–
Cc1ccc(CSC2=Nc3ccccc3C3=NC(CC(=O)NC4CCCCC4)C(=O)N23)cc1 (configuration not stated),inactive: 38.8%,–
COc1ccc(CNC(=O)c2cc(Nc3ccc(C)cc3C)nc3ccccc23)cc1,inactive: 7.98%,–
CCCN(CCC)S(=O)(=O)c1ccc2c(c1)N(CC(=O)NC(C)c1ccccc1)C(=O)CS2 (configuration not stated),inactive: -12.7%,–
Cc1ccc2nc(-c3ccc(NC(=O)COc4ccccc4)cc3)sc2c1,inactive: 41.7%,–
COc1ccccc1N1CCN(C(=O)c2cc(-c3ccc(F)cc3)on2)CC1,inactive: -7.9%,–
CC(=O)c1ccc(N2C(=O)N(CC(=O)c3ccc(C)cc3)c3ccccc3S2(=O)=O)cc1,inactive: -23.2%,–
Cc1ccc2oc(=O)c3cnn(CC(=O)N4CCN(c5ccccc5)CC4)c3c2c1,inactive: 6.63%,–
Cc1c(Cl)cccc1NC(=O)CCN1C(=O)c2ccccc2Sc2ncccc21,inactive: -18.2%,–
CCN(C(=O)Cn1nnc2sc(-c3ccccc3)cc2c1=O)c1cccc(C)c1,inactive: -2.43%,–
Cc1cc(NC(=O)CCNS(=O)(=O)c2ccc3c(c2)oc(=O)n3C)ccc1Br,inactive: -15.5%,–
CCN(CC)C(=O)c1cc(-c2ccc(Cl)cc2)on1,inactive: 50.2%,–
O=C(Nc1ccc(F)cc1F)c1cc2nc(-c3ccco3)cc(C(F)(F)Cl)n2n1,inactive: -5.99%,–
COC(=O)c1cnn2c(C)c(Cc3c(C)cc(C)cc3C)c(C)nc12,inactive: -0.54%,–
COc1ccc(NC(=O)CCn2c(=O)c3cccn3c3ccccc32)c(OC)c1,inactive: -1.97%,–
CCC1CN(C(=O)Nc2cccc3c2CCCC3)c2ccccc2O1 (configuration not stated),inactive: -34.5%,–
Cc1ccc2c(=O)cc(C(=O)Nc3ccc(S(=O)(=O)N(C)Cc4ccccc4)cc3)oc2c1,inactive: -4.17%,–
CCN(CC)S(=O)(=O)c1ccc2c(c1)c(=O)c(C(=O)N1CCN(c3cccc(C)c3)C(C)C1)cn2C (configuration not stated),inactive: 2.35%,–
Cc1ccc(CNC(=O)CN(c2ccc(C)cc2)S(=O)(=O)c2c(C)nn(C)c2C)cc1,inactive: -14.1%,–
CC(=O)c1ccc(NC(=O)CN(C)S(=O)(=O)c2cccc3nsnc23)cc1,inactive: -6.02%,–
COc1ccccc1-c1cc2nc(C)c(CCC(=O)NCc3cccc(Cl)c3)c(C)n2n1,–,active: 12.6 µM
CCCCn1c(C(C)NC(=O)c2ccccc2)nc2ccccc21 (configuration not stated),inactive: -26.5%,–
COc1ccc(N2CC(NC(=O)C3CC3)CC2=O)cc1OC (configuration not stated),inactive: -12.1%,–

Structure (SMILES),"activity change, negative = inhibition",Potency
Cc1c(C(=O)Nc2ccc(F)cc2)sc2nc[nH]c(=O)c12,inactive: 43.4%,–
CC(C)CCn1c(=O)c2sccc2n2c(CCCC(=O)NCc3ccc(F)cc3)nnc12,inactive: -23.7%,–
Fc1cccc(-n2ncc3c2ncn2nc(-c4ccccc4Cl)nc32)c1,inactive: 1.42%,–
O=C(Cn1c(=O)c2cccn2c2ccc(F)cc21)N1CCN(c2ccc(F)cc2)CC1,inactive: -12.7%,–
Cc1cccc(N2CCN(C(=O)CCn3c(=O)c4cccn4c4cccnc43)CC2)c1C,inactive: -6.32%,–
Cc1ccn2c(=O)c(C(=O)NC(C)c3ccccc3)c(O)nc2c1 (configuration not stated),inactive: 1.88%,–
COc1ccccc1N1CCN(C(=O)c2cc(-c3ccccc3O)on2)CC1,inactive: -10.3% [at 11.5 µM],–
N#Cc1cccc(NC(=O)c2cc3c(s2)-c2ccc(Cl)cc2SC3)c1,inactive: -18.3%,–
CCOc1ccc(C(=O)Nc2cc(-c3nc4ccccc4s3)ccc2OC)cc1,inactive: -35.8%,–
CCc1nn(CC(=O)NCc2ccccc2Cl)c(=O)c2cccn12,inactive: -2.86%,–
Cc1cc(C)cc(NC(=O)c2cccc3c2C(=O)N(C2CCCCC2)C3)c1,inactive: 8.62%,–
O=C(COc1ccccc1[N+](=O)[O-])Nc1ccc(-c2nc3ccccc3s2)cc1,inactive: 44.4%,–
Cc1nc(SCC(=O)Nc2ccccc2F)[nH]c(=O)c1Cc1ccccc1,inactive: -0.605%,–
O=S(=O)(c1ccccc1)c1nc(-c2cccs2)oc1SCc1ccc(F)cc1,inactive: -13.4%,–
COc1ccc(S(=O)(=O)c2cc(NS(=O)(=O)c3ccc(Cl)cc3)c(C)c(C)c2O)cc1,inactive: -25.7%,–
COc1ccc(NC(=O)c2cnc[nH]2)cc1,inactive: 66%,–
COc1ccc(-c2cn3nc(SCC(=O)Nc4ccc(C)c(Cl)c4)ccc3n2)cc1,inactive: 28.8%,–
Cc1ccc(NC(c2ccc(Cl)cc2)c2nnc(-c3cccc(F)c3)o2)cc1C (configuration not stated),inactive: -6.03%,–
COC(=O)CCNC(=O)N1CCN(c2nnc(C)c3c(C)n(-c4ccc(Cl)cc4)nc23)CC1,inactive: -2.82%,–
COc1ccc(OC)c(CCNC(=O)c2c3c(nc4ccccc24)C(=O)N(C2CCCCC2)C3)c1,inactive: -26.6%,–
Cc1cc(C)c(NC(=O)COc2ccc3c(C)cc(=O)oc3c2)c(C)c1,inactive: -28.3% [at 11.5 µM],–
O=C(CSc1nc2c([nH]c3ccccc32)c(=O)n1-c1ccc(Cl)cc1)N1CCCC1,inactive: -2.91%,–
CCOC(=O)Cn1c(=O)oc2cc(S(=O)(=O)N3CCN(c4ccc(C(C)=O)cc4)CC3)ccc21,inactive: -31.3%,–
CCOc1ccc(S(=O)(=O)c2cn(Cc3cc(C)ccc3C)c3ccc(OCC)cc3c2=O)cc1,inactive: -13.3%,–
COc1cccc(Nc2nc3cc(Cl)c(Cl)cc3nc2-n2nc(C)cc2C)c1,inactive: -4.24%,–

Structure (SMILES),"activity change, negative = inhibition",Potency
COc1ccc(NC(=O)Cn2nc(C)c3nn(-c4ccc(Cl)cc4)c(C)c3c2=O)cc1,inactive: -26.7%,–
CCCOC(=O)c1ccc(Cn2nnc3sc4c(c3c2=O)CCC(C)C4)cc1 (configuration not stated),inactive: 7.4%,–
COc1ccccc1CNC(=O)c1cnc(N2CCCC2)nc1C,inactive: -9.99%,–
CC1CCN(c2oc(/C=C/c3ccc(F)cc3)nc2C#N)CC1,inactive: -9.99%,–
CCOc1ccc(-c2nc(Cn3c(=O)cc(C)c4c(C)nn(-c5ccc(C)cc5)c43)c(C)o2)cc1,inactive: 15.7%,–
COc1ccccc1NC(=O)C1=C(C)Nc2nc(SCc3ccccc3)nn2C1c1cccnc1 (configuration not stated),inactive: -14.1%,–
COc1ccc(CCNC(=O)CCn2c(=O)c3ccccc3n(CC(=O)Nc3ccc(C)cc3C)c2=O)cc1OC,inactive: -10.6%,–
Cn1c(=O)c2c(c3ccccc31)OC(=O)CC2c1cccc(F)c1 (configuration not stated),inactive: -18.3%,–
O=C(C1CCC(Cn2c(=O)c3sccc3n(Cc3ccccc3F)c2=O)CC1)N1CCCCC1 (configuration not stated),inactive: -17.1%,–
CCCCNC(=O)C1CCN(S(=O)(=O)c2ccc3c(ccn3CC)c2)CC1,inactive: -10.5%,–
CC(C)NC(=O)C1CCN(C(=O)c2cc3sccc3n2Cc2ccc(Cl)cc2)CC1,–,active: 8.91 µM
Cc1cc(C)c(NC(=O)c2ncoc2-c2ccco2)c(C)c1,inactive: -13.4%,–
CC(=O)N1C[C@H](O)C[C@H]1C(=O)O,inactive: 3.93%,–
O=S(=O)(NCCc1csc2nc(-c3ccccc3)nn12)c1ccc(Cl)s1,inactive: -20%,–
COc1ccc2c(CNC3CCCCCC3)c(C(=O)O)n(Cc3cccc(F)c3)c2c1,inactive: -14.2%,–
O=S(=O)(O)c1ccc2nc(-c3ccccc3)[nH]c2c1,inactive: 8.18%,–
CCN(CC)CCSc1nnc2c3cc(F)ccc3n(C)c2n1,inactive: -8.64%,–
CCOC(=O)c1c(C)[nH]c(CCC(=O)Nc2ccc(Cl)cc2C)c1C,inactive: -4.97%,–
COc1ccc(-c2noc(CNS(=O)(=O)c3ccc(Br)cc3)n2)cc1OC,inactive: -30%,–
Cc1ccc(-c2noc(CN(C(=O)COc3cc(C)cc(C)c3C)C(C)C)n2)cc1,inactive: -18.7%,–
COc1ccc(CCNC(=O)c2cnc3sc(N4CCCC4)nn3c2=O)cc1OC,inactive: -16.4%,–
CN(C(=O)c1cc2c(s1)-c1ccc(Cl)cc1SC2)c1cccc(C(F)(F)F)c1,inactive: 10.2%,–
